This is an account of results in PubChem BioAssay AID463173 (ICCB-Longwood Screening Facility, Harvard Medical School, 2010).

Hit rate of the full screen: of about 52,000 compounds, about 4,300 (8.3%) were called active. No stated cut-off is given here; in the data, active means survival mostly below about 52% (no sharp cut-off); inactive means mostly above about 56%. The list shows a part of the results.

The assay relates to DeltatarO mutant. Kind of assay: S. aureus survival, RN4220 and DeltatarO strains – OD600, teichoic acid synthesis inhibitors, primary screen (AID 463173). The conditions noted are these: S. aureus RN4220 wild type/DeltatarO growth, OD600, 18 h, hits give low values, screened at 18.75 µg/mL (by protocol).
For the compound `O=C(c1cccc([N+](=O)[O-])c1)N1CCN(CCc2ccncc2)CC1`, the survival was inactive: 46%.

As for `CCOc1ccccc1NC(=O)c1nn(-c2ccc(OC)cc2)c(=O)c2c1c1ccccc1n2C`, the survival is inactive: 90%.

With `CC(C)(C)c1ccc(S(=O)(=O)N2CCC(c3ccncc3)CC2)cc1`, the survival is inactive: 109%.

As to `CCOc1ccc(NC(=O)Cn2c(=O)n(Cc3ccccc3)c(=O)c3c4c(sc32)CN(C(C)=O)CC4)cc1`, the survival was inactive: 80%.

Turning to `O=C(Nc1cccnc1)C1CC(c2ccccc2O)=NO1` (stereo unspecified), the survival is inactive: 103%.

`Cc1ccc(NC(=O)CN2C(=O)COc3ccc(S(=O)(=O)N4CCOCC4)cc32)c(Cl)c1`: the survival was inactive: 91%.

As for `COc1cccc(-n2cc(C(=O)Nc3ccccc3C(N)=O)c3ccccc3c2=O)c1`, the survival was inactive: 67%.

Take `Cc1nc(SCCOc2ccc(Cl)cc2)[nH]c(=O)c1Cc1ccccc1`: the survival was inactive: 72%.

With `O=C(O)c1csc2c1CCCC2`, the survival was inactive: 85%.

Consider `Cc1ccccc1CNC(=O)Cn1cc2c(n1)-c1c(oc(C(=O)N3CCCC3)c1C)CC2`, for which the survival is inactive: 107%.

On to `COc1ccccc1NC(=O)C1=C(C)Nc2ncnn2C1c1sccc1C` (stereo unspecified), for which the survival was inactive: 94%.

In the case of `COc1ccc(N2CC(NC(=O)C3CCCC3)CC2=O)cc1` (stereo unspecified), the survival was inactive: 83%.

For `COc1ccc(OC)c(CNC(=O)CCC(=O)N2Cc3ccccc3Oc3ncccc32)c1`, the survival is inactive: 112%.

Take `COc1ccc2nc(NC(=O)c3nc(SCc4cccc(C)c4)ncc3Cl)sc2c1`: the survival is active: 37%.

For `CNc1nc(Oc2ccc(=O)[nH]n2)nc(N2CCOCC2)n1`, the survival is inactive: 77%.

Consider `O=C(CSc1nnc(Cc2ccccc2)n1Cc1ccccc1)NCc1ccco1`, for which the survival is inactive: 63%.

For `COc1ccc(-n2cc(C(=O)Nc3ccccc3C#N)c3ccccc3c2=O)cc1`, the survival was inactive: 107%.

On to `COc1cccc(CNC(=O)c2cccc(NC(=O)c3nsc4ccccc34)c2)c1`, for which the survival was inactive: 89%.

Take `COc1cc(Cl)c(NC(=O)CN(C)S(=O)(=O)c2ccc3[nH]c4c(c3c2)CCCC4)c(OC)c1`: the survival is inactive: 96%.

As for `CCCOc1ccc(CNC(=O)Cn2c(=O)oc3ccccc32)cc1`, the survival was inactive: 80%.

`CCOc1ccc(OCC)c(NC(=O)CSc2nc3c(c(=O)n(C)c(=O)n3C)n2C(C)C)c1`: the survival is inactive: 92%.

For the compound `Cc1ccc(CNC(=O)c2cnn(-c3ccc(F)cc3F)c2C2CCN(C(=O)OC(C)(C)C)CC2)cc1`, the survival was inactive: 84%.

Regarding `CCCOc1ccc(C2C(=O)N(C3CCCCC3)CC(=O)N2CCC2=CCCCC2)cc1OC` (stereo unspecified), the survival was inactive: 94%.

For the compound `COc1cccc(CNC(=O)CC(c2ccc(C)cc2)N2Cc3ccccc3C2=O)c1` (stereo unspecified), the survival was inactive: 74%.

As to `CCOC(=O)C(CC)Sc1nnc2[nH]c(=O)cc(C)n12` (stereo unspecified), the survival was active: 52%.

Turning to `COc1ccc(NS(=O)(=O)c2ccc3c(c2)n(C)c(=O)c(=O)n3C)cc1Cl`, the survival is inactive: 82%.

For the compound `CC(=O)c1c(C)oc2ccc(N(C(=O)c3ccncc3)S(=O)(=O)c3ccc(F)cc3C)cc12`, the survival is inactive: 116%.

For `COc1ccc(N(CC(=O)N2CCN(c3ccc(F)cc3)CC2)S(=O)(=O)c2c(C)nn(C)c2C)cc1`, the survival was inactive: 80%.

With `Cc1cc(C)cc(NC(=O)CN(C)S(=O)(=O)c2ccc3c(c2)CCC(=O)N3)c1`, the survival is inactive: 90%.

`Cc1cccc(C(=O)Nc2sc3c(c2C(=O)O)CCCC3)c1`: the survival is active: 23%.

On to `Cc1nn2c(=O)cc(COC(=O)c3ccc(NC(=O)c4ccc(C(C)(C)C)cc4)cc3)nc2s1`, for which the survival is inactive: 80%.

In the case of `Cc1csc2nc(-c3cccc(NC(=O)c4ccccc4F)c3)cn12`, the survival is inactive: 126%.

As to `O=C(CSc1n[nH]c(-c2ccccc2)n1)NCCc1ccccc1`, the survival was inactive: 78%.

`COc1cccc(CNC(=O)CCS(=O)(=O)c2cc3c4c(c2)CCN4C(=O)CC3)c1`: the survival was inactive: 68%.

As to `CCOC(=O)c1cc2c(=O)n3ccccc3nc2n(CC2CCCO2)c1=NC(=O)c1ccccc1F` (stereo unspecified), the survival is active: 44%.

`COc1ccc(CNC(=O)C(C)n2nc(C)c3sc4ccccc4c3c2=O)cc1OC` (stereo unspecified): the survival is inactive: 67%.

Regarding `Cc1ccccc1NC(=O)CSc1nnc(-c2cccc(Cl)c2)o1`, the survival was inactive: 77%.

As for `COc1ccccc1-c1ccnc2c(-c3ccc(Br)cc3)c(C)nn12`, the survival is inactive: 94%.

With `CCc1ccc(Cn2c(CNS(=O)(=O)c3ccc(Cl)s3)nc3cccnc32)cc1`, the survival is inactive: 66%.

Turning to `Cc1ccc(S(=O)(=O)c2c(Nc3ccccc3)sc(C(=O)c3ccc4c(c3)OCO4)c2N)cc1`, the survival was inactive: 82%.

With `CCCC(=Nc1ccccc1O)C1=C(O)CC(CC(C)SCC)CC1=O` (stereo unspecified), the survival is inactive: 88%.

`COCCn1nnnc1CN1CCC(NC(=O)Nc2cccc(OC)c2)CC1`: the survival is inactive: 71%.

As to `Cc1nn2c(=O)cc(COC(=O)c3ccccc3NC(=O)C(C)C)nc2s1`, the survival was inactive: 80%.

On to `COc1cccc(-n2cc(C(=O)Oc3ccc(F)cc3)c3ccccc3c2=O)c1`, for which the survival was inactive: 77%.

Regarding `COc1cc(C(=O)Nc2cccc(OCc3cc(=O)n4c(C)csc4n3)c2)cc(OC)c1OC`, the survival was inactive: 98%.

With `CCOC(=O)c1ccc(N=c2sc(C(=O)OC)cc(=O)n2C2CC2)cc1`, the survival was inactive: 79%.

In the case of `COc1ccc(S(=O)(=O)N2CCC(c3nnc(-c4ccccc4C)o3)CC2)c(OC)c1`, the survival is inactive: 81%.

Consider `CCN1C(=O)C(O)(C(C)C(=O)c2ccccc2)c2ccccc21` (stereo unspecified), for which the survival was inactive: 57%.

As to `Cc1c(Cl)ccc2sc(NC(=O)c3ccc(S(=O)(=O)N4CCCC4)cc3)nc12`, the survival was inactive: 75%.

On to `COc1ccc(-c2nc(SCC(=O)NCC3CCCO3)c(-c3ccc(Cl)cc3)[nH]2)cc1` (stereo unspecified), for which the survival was inactive: 75%.

Turning to `COc1ccc(OC)c(NC(=O)Cn2ccn(-c3ccc(F)cc3)c(=O)c2=O)c1`, the survival is inactive: 52%.

`O=C(NCc1ccc2c(c1)CCN2C(=O)c1ccncc1)c1ccccc1Br`: the survival is inactive: 72%.

Regarding `COc1ccc(C)cc1S(=O)(=O)Nc1cccc(-c2ccc(N3CCCC3)nn2)c1`, the survival is inactive: 78%.

As to `O=C(CC(c1cccs1)N1Cc2ccccc2C1=O)Nc1ccccc1` (stereo unspecified), the survival is inactive: 70%.

On to `CCN1CCN(C(=O)Cn2ncc3c4ccccc4n(Cc4ccccc4F)c3c2=O)CC1`, for which the survival was inactive: 95%.

Consider `Cc1cccc(N2CCN(C(c3ccc(F)cc3)c3nnc(-c4ccccc4)o3)CC2)c1C` (stereo unspecified), for which the survival is active: 39%.
